Measured values: patent US11578136B2, “Compositions and methods for treating cancer” (INNATE PHARMA, priority 2017, dated 2023)

T1: soluble recombinant human CD39 protein (Homo sapiens, UniProt P49961)
T1 construct: made in house; host or cells: CHO cells
T1 sequence (P49961 with tags, fused parts or gaps): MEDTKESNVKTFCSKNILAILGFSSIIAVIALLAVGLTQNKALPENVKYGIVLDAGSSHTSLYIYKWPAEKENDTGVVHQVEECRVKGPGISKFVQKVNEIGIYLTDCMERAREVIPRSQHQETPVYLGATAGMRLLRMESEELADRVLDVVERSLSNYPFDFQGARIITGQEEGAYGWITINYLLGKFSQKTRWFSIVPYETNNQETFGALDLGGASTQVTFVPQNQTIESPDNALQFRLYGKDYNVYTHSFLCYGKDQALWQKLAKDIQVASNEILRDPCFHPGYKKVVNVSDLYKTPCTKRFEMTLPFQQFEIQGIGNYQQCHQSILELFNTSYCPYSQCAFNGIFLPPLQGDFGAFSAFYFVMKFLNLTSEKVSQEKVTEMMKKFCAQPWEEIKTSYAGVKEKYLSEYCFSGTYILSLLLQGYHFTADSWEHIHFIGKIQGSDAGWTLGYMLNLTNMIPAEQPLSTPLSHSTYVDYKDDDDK

T2: cell-membrane bound CD39 (Homo sapiens, UniProt P49961)
T2 sequence (P49961 1-510): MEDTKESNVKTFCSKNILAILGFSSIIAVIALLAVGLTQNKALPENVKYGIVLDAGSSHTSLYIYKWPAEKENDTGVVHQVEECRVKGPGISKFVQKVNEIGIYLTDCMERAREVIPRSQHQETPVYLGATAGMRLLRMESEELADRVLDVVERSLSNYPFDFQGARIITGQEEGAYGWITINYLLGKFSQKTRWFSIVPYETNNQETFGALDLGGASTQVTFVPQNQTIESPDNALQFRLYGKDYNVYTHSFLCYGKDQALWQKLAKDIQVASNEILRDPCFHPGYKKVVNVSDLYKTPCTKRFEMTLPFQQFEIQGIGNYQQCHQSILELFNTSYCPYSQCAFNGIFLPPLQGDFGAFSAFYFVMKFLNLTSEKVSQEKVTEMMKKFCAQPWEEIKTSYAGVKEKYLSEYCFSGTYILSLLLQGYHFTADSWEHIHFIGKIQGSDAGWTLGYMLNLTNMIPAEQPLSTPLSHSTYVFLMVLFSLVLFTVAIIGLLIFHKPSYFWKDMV

T3: CD39 mutants transfected in Hek-293T cells (Homo sapiens, UniProt P49961, E142K/M139A/R138A)
T3 construct: expressed in transfected cells; host or cells: HEK-293T cells
T3 sequence (P49961 1-510 R138A/M139A/E142K): T2 sequence (P49961 1-510) with R138A, M139A, E142K

T4: CD39 mutants transfected in Hek-293T cells (Homo sapiens, UniProt P49961, E143A/N99A/Q96A/R147E)
T4 construct: expressed in transfected cells; host or cells: HEK-293T cells
T4 sequence (P49961 1-510 Q96A/N99A/E143A/R147E): T2 sequence (P49961 1-510) with Q96A, N99A, E143A, R147E

T5: CD39 mutants transfected in Hek-293T cells (Homo sapiens, UniProt P49961, D107A/E100A/K87A)
T5 construct: expressed in transfected cells; host or cells: HEK-293T cells
T5 sequence (P49961 1-510 K87A/E100A/D107A): T2 sequence (P49961 1-510) with K87A, E100A, D107A

B1: I-395: anti-CD39 antibody, VH SEQ ID NO: 14, VL SEQ ID NO: 15 (antibody, listed as Mus musculus, V domains shown)
VH: EVQLQQSGPELVKPGASVRMSCKASGYTFTDYNMHWVKKNHGKGLEWIGYINPNNGGTTYNQKFKGKATLTVNTSSKTAYMELRSLTSEDSAVYYCTRGGTRFASWGQGTLVTVSA
VL: NIVLTQSPASLAVSLGQRATISCRASESVDNYGISFMYWFQQKPGQPPKLLIYAASTQGSGVPARFSGSGSGTDFSLNIHPMEEDDTAMYFCQQSKEVPFTFGSGTKLEIK
B2: I-396: anti-CD39 antibody, VH SEQ ID NO: 22, VL SEQ ID NO: 23 (antibody, listed as Mus musculus, V domains shown)
VH: EVQLQQSGAELVKPGASVKLSCIVSGFNIKDTYINWVKQRPEQGLEWIGRIDPANGNTKYDPKFQGKATMTSDTSSNTAYLHLSSLTSDDSAVYYCARWGYDDEEADYFDSWGQGTTLTVSS
VL: B1 VL with N1D, Y38N, T57N, H80L, D85V, T87A, Q93H, F100W, S104G

Tests used:
[1] = biological target: T1, soluble recombinant human CD39 protein; test: Inhibition of the enzymatic activity of soluble CD39 (Cell Titer Glo); format: biochemical; conditions: for relative potency of inhibition of soluble CD39 (FIG. 2B): ranking among I-394, I-395, I-396; for inhibition of the enzymatic activity of soluble CD39 protein: result in words, 400 ng/ml sCD39, 20 μM ATP
Protocol: The inhibition by antibodies of the enzymatic activity of soluble CD39 protein produced was evaluated using Cell Titer Glo™ (Promega, reference G7571) that allows assessment of ATP hydrolysis through use of a reagent that generates a luminescent signal proportional to the amount of ATP present. In this way, inhibition of the soluble-CD39-meidatd ATP hydrolysis can be assessed. Briefly, dose ranges of anti-CD39 antibodies from 100 μg/ml to 6×10^−3 μg/ml were incubated with 400 ng/ml of soluble recombinant human CD39 protein having the amino acid sequence described in the Methods section (SEQ ID NO: 45), for 1 h at 37° C. 20 μM ATP was added to the plates for 30 additional minutes at 37° C. before addition of CTG (Cell Titer Glo) reagent. Emitted light was quantified using an Enspire™ luminometer after a short incubation period of 5 min in the dark. Anti-CD39 antibody efficacy was determined by comparing emitted light in presence of antibody with ATP alone (maximal light emission) and ATP together with soluble CD39 protein (minimal light emission).

cell-membrane bound CD39 = biological target: T2, cell-membrane bound CD39; test: Inhibition of the enzymatic activity of cellular CD39 (cells not specified); format: cell-based; conditions: for inhibition of ATPase activity of CD39 protein in cells / cell-membrane bound CD39: result in words
Protocol: The inhibition of the CD39 enzymatic activity in CD39-expressing cells by antibodies was evaluated using Cell Titer Glo™ (Promega, reference G7571) that allows assessment of ATP hydrolysis through use of a reagent that generates a luminescent signal proportional to the amount of ATP present. The assay was thus designed to permit assessment of the inhibition of ATP hydrolyzed by CD39 in the cell culture supernatant. Briefly, 5×10^4 Ramos human lymphoma cells, 5×10^3 human CD39-, cynomolgus CD39- and mouse CD39-expressing CHO cells, were incubated 1 hour at 37° C. with anti-CD39 antibodies from 30 μg/ml to […]. Cells were then incubated with 20 μM ATP for 1 additional hour at 37° C. Plates were centrifuged for 2 min at 400 g and 50 μl cell supernatant are transferred in a luminescence microplate (white wells). 50 μl CellTiter-Glo® Reagent (CTG) was added to the supernatant and emitted light was quantified after a 5 min incubation in the dark using a Enspire™ luminometer. Anti-CD39 antibody efficacy was determined by comparing emitted light in presence of antibody with ATP alone (maximal light emission) and ATP together with cells (minimal light emission).
The two antibodies that have been reported to inhibit the ATPase activity of CD39 in cellular assays (BY40 and BY12) were assessed to determine whether are able to inhibit the ATPase activity of recombinant soluble CD39 protein. The inhibition by antibodies of the enzymatic activity of soluble CD39 protein produced as described above was evaluated using Cell Titer Glo™ (Promega, reference G7571). The inhibition by antibodies of the enzymatic activity of cellular CD39 protein was evaluated as indicated above.

[2] = biological target: T3, CD39 mutants transfected in Hek-293T cells; test: Epitope mapping: binding to CD39 mutants by flow cytometry; conditions: mutant 19: R138A, M139A, E142K; vs wild-type CD39
Protocol: (§1) CD39 mutants were generated by PCR. The sequences amplified were run on agarose gel and purified using the Macherey Nagel PCR Clean-Up Gel Extraction kit (reference 740609). The purified PCR products generated for each mutant were then ligated into an expression vector, with the ClonTech InFusion system. The vectors containing the mutated sequences were prepared as Miniprep and sequenced. After sequencing, the vectors containing the mutated sequences were prepared as Midiprep using the Promega PureYield™ Plasmid Midiprep System. HEK293T cells were grown in DMEM medium (Invitrogen), transfected with vectors using Invitrogen's Lipofectamine 2000 and incubated at 37° C. in a CO2 incubator for 48 hours prior to testing for transgene expression. The targeted amino acid mutations in the table 1 below are shown using numbering of SEQ ID NO: 1.
(§2) In order to define the epitopes of anti-CD39 antibodies, we designed CD39 mutants defined by substitutions of amino acids exposed at the molecular surface over the surface of CD39. Mutants were transfected in Hek-293T cells, as shown in the table 1, using numbering of SEQ ID NO: 1.
(§3) Dose-ranges of I-394 (10-2.5-0.625-0.1563-0.0391-0.0098-0.0024-0.0006 μg/ml) are tested on the 20 generated mutants by flow cytometry. […] Mutant 5 contains amino acid substitutions at residues Q96, N99, E143 and R147.
(§4) Mutants were transfected in Hek-293T cells, as shown in the table 1, using numbering of SEQ ID NO: 1. Dose-ranges of antibodies I-394 were tested on the 20 mutants by flow cytometry. […] Mutant 19 includes substitutions at residues R138, M139 and E142. The core epitope of I-394 thus includes one or more (or all of) residues R138, M139 and E142.
(§5) Mutants were transfected in Hek-293T cells, as shown in the table 1, using numbering of SEQ ID NO: 1.Dose-ranges of test antibodies (10-2.5-0.625-0.1563-0.0391-0.0098-0.0024-0.0006 μg/ml) are tested on the 20 generated mutants by flow cytometry.

[3] = biological target: T4, CD39 mutants transfected in Hek-293T cells; test: as above; conditions: mutant 5: Q96A, N99A, E143A, R147E; vs wild-type CD39
Protocol: as §1, §2, §3, §4, §5

[4] = biological target: T5, CD39 mutants transfected in Hek-293T cells; test: as above; conditions: mutant 15: K87A, E100A, D107A
Protocol: as §1, §2, §3, §4, §5

[5] = test system: CD39 mutants transfected in Hek-293T cells; test: as above; set-up: species or system human; conditions: remaining mutants of Table 1
Protocol: as §1, §2, §3, §4, §5

Molecule	relative potency of inhibition of soluble CD39 (FIG. 2B) [1]	inhibition of the enzymatic activity of soluble CD39 protein [1]	potency and maximal inhibition of cellular CD39 compared to BY40 (FIG. 2A) (cell-membrane bound CD39; compared to BY40)	inhibition of ATPase activity of CD39 protein in cells / cell-membrane bound CD39 (cell-membrane bound CD39)	binding to cells expressing mutant 19 of CD39 [2]	binding to cells expressing mutant 5 of CD39 [3]	binding to mutant 15 of CD39 [4]	binding to any other mutant of the 20 CD39 mutants [5]
B1	followed by I-395	inhibited	greater potency and maximal inhibition	inhibit	loss of binding	loss of binding		
B2	lower potency	inhibited		inhibit			loss of binding	without loss of binding

Substitutions are numbered along the chain they refer to.
